Data reported in PubChem BioAssay AID2675 (National Center for Advancing Translational Sciences (NCATS), 2010).
The whole screen tested about 280,000 compounds, of which about 100 (0.036%) were called active. Inconclusive means that the source gave no clear call. Such entries were picked first, then a sample of the others. The call rests on the fitted dose curve; in most records, active means well fitted inhibition curve with a large enough effect in the signal ratio, with a control signal flat (not every such curve was filed as active); inconclusive means small, poorly fitted or top-dose-only effect, or effect the other way, or a change in a side signal; inactive means no such curve, though single readings can be large or run the other way; the % refers to the signal ratio. Potencies of inconclusive entries are doubtful fits and often do not repeat. “Side channel” marks fits to a control or component signal instead of the main read-out.

Molecular target: Muscleblind-like protein 1 (Homo sapiens) (UniProt Q9NR56)
Assay: qHTS Assay for Inhibitors of MBNL1-poly(CUG) RNA binding
Settings: TR-FRET MBNL1-His/biotin-(CUG)12 binding, 665/545 ratio; activity change, negative = inhibition: at 57.5 µM (top of the series)
Excerpt: NIH Chemical Genomics Center [NCGC] NIH Molecular Libraries Probe Production Centers Network [MLPCN] MLPCN Grant: R03 MH087421-01 Assay Submitter (PI): Charles Thornton NCGC Assay Overview: Expanded CTG repeats in the 3' untranslated region of the DM protein kinase (DMPK) gene causes type I myotonic dystrophy (DM1). DM1 is a multi-systemic disease with a prevalence of 1/7000. Clinical features include myotonia, progressive muscle weakness and wasting, cardiac arrhythmia, insulin resistance, hypersomnolence, cataracts, and other symptoms. The pathogenic effect of expanded CTG repeats stems from deleterious effects of the mutant transcript. CUGexp mRNA accumulates in nuclear foci and sequesters proteins of the muscleblind family, of which MBNL1 is the most common family member in skeletal muscles. The binding interaction between MBNL1 and CUGexp tracts leads to deregulation of alternative splicing and is therefore a key molecular step in the pathogenesis of DM1. To target this binding interaction, we optimized a protein-RNA binding assay in 1536-well format for identification of small molecule inhibitors of biotinylated (CUG)12 and his-tagged MBNL1 binding. Protein-RNA complex of MBNL1-His and Biotin-(CUG)12 captures the detection reagents terbium-labeled anti-His antibody and streptavidin conjugated XL665. This brings the terbium label within close proximity to XL665 to allow time-resolved fluorescence resonance energy transfer (TR-FRET). Inhibitors of MBNL1-(CUG)12 binding will disrupt TR-FRET.
NCGC Assay Protocol Summary: This is a TR-FRET binding assay with MBNL1-His and Biotin-(CUG)12 RNA. The assay uses a ratiometric measurement. In the presence of MBNL1-(CUG)12 complex, the excitation energy is transferred to the XL665 acceptor label, causing emission at 665nm, while the 545nm donor signal […]. Data were normalized to the controls for basal activity (buffer only) and 100% activity (with MBNL1-(CUG)12). […] The final titration was 92 nM to 58 uM. (3) Add 1 ul of terbium labeled anti-His antibody (0.055 ng/ul final concentration) (4) Add 1 ul of streptavidin-XL665 (5 nM final concentration) (5) Incubate 60 min at room temperature (6) Detect the assay plate in a EnVision plate reader (PerkinElmer) with Ex=340 nm, Em1=665 nm and Em2=545 nm. Keywords: mytonic dystrophy type I, DM1, muscleblind like 1, MBNL1, CUG expansion, protein-RNA binding inhibitor, high throughput screening, MLSMR, MLSCN, NIH Roadmap, qHTS and NCGC
On the % scale 0 is the no-effect control and ±100 the full control effect; potency means the concentration at half of the fitted maximal effect; tags describe the fitted curve by direction and shape or compound fluorescence and quenching.

Chain of UniProt Q9NR56 (Q9NR56 whole entry, looked up): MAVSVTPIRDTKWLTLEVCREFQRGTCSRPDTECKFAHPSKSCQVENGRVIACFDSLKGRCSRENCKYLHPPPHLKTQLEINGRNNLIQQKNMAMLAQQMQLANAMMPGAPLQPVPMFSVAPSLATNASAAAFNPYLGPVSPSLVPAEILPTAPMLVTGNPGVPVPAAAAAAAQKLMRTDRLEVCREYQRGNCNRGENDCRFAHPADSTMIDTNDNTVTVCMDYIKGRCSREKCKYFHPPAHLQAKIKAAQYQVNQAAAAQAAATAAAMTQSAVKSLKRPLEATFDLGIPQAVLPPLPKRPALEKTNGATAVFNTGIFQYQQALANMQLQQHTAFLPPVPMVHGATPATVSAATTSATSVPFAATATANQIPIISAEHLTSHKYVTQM

| SMILES | Potency | activity change, negative = inhibition |
| --- | --- | --- |
| Cc1cc(C)n(-c2nc(SCC(=O)NCC3CCCO3)c3c4c(sc3n2)CCCC4)n1 (stereo not drawn) | inactive |  |
| CC1(C)Cc2nc3sc(C(=O)NCCCO)c(N)c3cc2CO1 | inconclusive: 20 µM [quencher, side channel, partial curve] |  |
| COc1cc2c(cc1OC)C(c1ccc([N+](=O)[O-])cc1)N(C(C)=O)CC2 (stereo not drawn) | inconclusive: 20 µM [quencher, side channel, partial curve] |  |
| CC(=O)c1cc2c(cc1N/C(=N/S(=O)(=O)c1ccc(C)cc1)c1ccc(Cl)cc1)OCO2 | inconclusive: 4.47 µM [fluorescent, side channel, single point] |  |
| COc1ccccc1N1C(=O)c2cccnc2C1=O | inconclusive: 14.1 µM [quencher, side channel, partial curve] |  |
| CSc1nc(N)nc(SCC(=O)c2ccccc2)c1C#N | inactive |  |
| N#Cc1cc(Cl)c(NCC2CCCO2)cc1C#N (stereo not drawn) | inconclusive: 0.355 µM [quencher, side channel, full curve, poor fit] |  |
| O=C(NCCc1ccccc1)c1ccc2nc(-c3ccco3)c(-c3ccco3)nc2c1 | inconclusive: 25.1 µM [quencher, side channel, partial curve] |  |
| CCc1ccc(C(=O)N/N=C/c2ccncc2)s1 | inconclusive: 35.5 µM [quencher, side channel, single point] |  |
| COc1ccc(N2CCN(S(=O)(=O)CCNC(=O)c3ccc(Br)o3)CC2)cc1 | inconclusive: 63.1 µM [inhibitor, single point] |  |
| COc1ccccc1NC(=S)N1CCCc2ccccc21 | inactive |  |
| Cc1ccc(NS(=O)(=O)c2cc(NC(=O)c3ccc4c(c3)NC(=O)CS4)ccc2Cl)c(C)c1 | inactive |  |
| CC(NC(=O)OCc1ccccc1)C(=O)OCN1C(=O)c2ccccc2C1=O (stereo not drawn) | inconclusive: 4.47 µM [quencher, side channel, single point] |  |
| CCCCC(=O)Nc1ccc2c(c1)oc1ccccc12 | inactive |  |
| C=CCN(CC=C)C(=O)c1cccc(OC2CCN(CC(C)(C)C)CC2)c1 | inactive |  |
| COc1ccc(-c2nc(C)ncc2N=Nc2ccccc2)cc1 | inconclusive: 8.91 µM [quencher, side channel, partial curve] |  |
| OCCCCNc1cccc2ccccc12 | inconclusive: 25.1 µM [quencher, side channel, partial curve] |  |
| O=C1CC(N2CCN(c3nc4ccccc4s3)CC2)C(=O)N1Cc1cccs1 (stereo not drawn) | inactive |  |
| CCc1ccc(N=c2c([N+](=O)[O-])nn(-c3ccccc3)n2O)cc1 | inconclusive: 15.8 µM [quencher, side channel, partial curve] |  |
| CCOC(=O)N1CCN(C(=O)c2ccccc2NC(=O)c2ccc(Br)cc2)CC1 | inconclusive: 5.62 µM [fluorescent, side channel, full curve, poor fit] |  |
| CC(C)(C)C(=O)N1CCN(c2ccc([N+](=O)[O-])c(-n3nc(-c4ccccc4)c4ccccc4c3=O)c2)CC1 | inconclusive: 3.16 µM [quencher, side channel, single point] |  |

| SMILES | Potency | activity change, negative = inhibition |
| --- | --- | --- |
| COCCCNC(=S)Nc1cc2oc3ccccc3c2cc1OC | inactive |  |
| Cc1ccc(CSc2nnc3c(n2)OC2(Nc4ccccc4-3)C(=O)Nc3ccc(F)cc32)cc1 (stereo not drawn) | inconclusive: 39.8 µM [quencher, single point] |  |
| N#CC12COC3(CCCCC3C1(C#N)C#N)OC2=N (stereo not drawn) | inactive |  |
| Cc1cc(NC(=S)NC(=O)CC(C)C)ccc1Br | inactive |  |
| COC(=O)c1ccc(C(=O)OC)c(NC(=O)CN2CCN(c3ccccc3)CC2)c1 | inconclusive: 0.891 µM [quencher, side channel, single point] |  |
| O=C(NCC(O)CO)c1ccc2[nH]c3ccccc3c2c1 (stereo not drawn) | inconclusive: 5.62 µM [quencher, side channel, full curve] |  |
| CCOC(=O)CCC(NC(=O)CCC(=O)NC(CCC(=O)OCC)C(=O)OCC)C(=O)OCC (stereo not drawn) |  | inconclusive: -27.3% [phenotype inactive] |
| CC1CCC(NC(=O)C2CCN(S(=O)(=O)c3cccc4nonc34)CC2)CC1 (stereo not drawn) | inconclusive: 8.91 µM [quencher, side channel, partial curve] |  |
| c1ccc(Cn2nnnc2C(c2cccs2)N2CCc3ccccc3C2)cc1 (stereo not drawn) | inactive |  |
| CCOC(=O)N1CCC(n2c(SCC(=O)Nc3nccs3)nc3ccsc3c2=O)CC1 | inactive |  |
| CCN(CC)CC(O)Cn1c(C)c(-c2ccccc2)c2cc([N+](=O)[O-])ccc21 (stereo not drawn) | inconclusive: 8.91 µM [quencher, side channel, full curve] |  |
| O=C(NC1CCCCC1)C(c1ccco1)N(C(=O)C(F)(F)F)C1CC1 (stereo not drawn) | inconclusive: 100 µM [inhibitor, single point] |  |
| CC(=O)N1CCN(C(=S)c2ccc(-c3ccc(Cl)cc3)o2)CC1 | inconclusive: 39.8 µM [quencher, single point] |  |
| CS(=O)(=O)N1CCN(c2ccc(C(=O)NC34CC5CC(CC(C5)C3)C4)cc2[N+](=O)[O-])CC1 | inconclusive: 31.6 µM [quencher, side channel, single point] |  |
| O=[N+]([O-])c1ccccc1/C=N/NC1=NS(=O)(=O)c2ccccc21 | inconclusive: 39.8 µM [quencher, single point] |  |
| COC(=O)c1cc2ccccc2oc1=O | inconclusive: 17.8 µM [quencher, side channel, partial curve] |  |
| Cc1ccc(C(=O)c2ccccc2C(=O)O)c(O)c1 | inactive |  |
| CCOc1ccc(C(=O)NCCN2CCCC2)cc1 | inactive |  |
| O=C(CSc1n[nH]c(-c2cccnc2)n1)OC1CCCCC1 | inactive |  |
| Oc1csc(Cc2nc(-c3ccc(-c4ccccc4)cc3)cs2)n1 | inactive |  |
| Cc1cc2cc3c(N)[nH]nc3nc2cc1C | inconclusive: 15.8 µM [quencher, side channel, partial curve] |  |

| SMILES | Potency | activity change, negative = inhibition |
| --- | --- | --- |
| CN1C(=O)C2C(c3ccc(N(C)C)cc3)NN(Cc3ccccc3)C2C1=O (stereo not drawn) | inconclusive: 22.4 µM [quencher, side channel, single point] |  |
| COc1ccc(N2CCN(CCOc3ccc4c(C)cc(=O)oc4c3)CC2)cc1 | inconclusive: 79.4 µM [inhibitor, single point] |  |
| CCOC(=O)C(=Cc1ccc(OCc2ccc([N+](=O)[O-])cc2)c(OC)c1)C(=O)OCC | inconclusive: 0.501 µM [quencher, side channel, full curve, poor fit] |  |
| Cc1cc(C)c(N=C2C(=O)Nc3ccccc32)c(C)c1 | inconclusive: 15.8 µM [quencher, partial curve] |  |
| CC(C)(C)OC(=O)NCCC(=O)N/N=C/c1ccc2ncccc2c1 | inconclusive: 20 µM [quencher, side channel, partial curve] |  |
| COc1ccccc1C(=O)N1CCN(c2cccc(Cl)c2)CC1 | inconclusive: 12.6 µM [quencher, side channel, partial curve] |  |
| O=C(C[n+]1ccc(C(=O)NCc2ccccc2)cc1)c1ccc(Cl)cc1 | inconclusive: 31.6 µM [quencher, side channel, single point] |  |
| Cc1cccc(NC(=O)/C(C#N)=C\c2cn(CC(=O)O)c3ccccc23)c1 | inconclusive: 25.1 µM [quencher, side channel, single point] |  |
| Cc1ccc(NC(=S)NCc2ccccc2)cc1[N+](=O)[O-] | inconclusive: 20 µM [quencher, side channel, single point] |  |
| CC(Oc1ccc(F)cc1)C(=O)NN (stereo not drawn) | inconclusive: 39.8 µM [fluorescent, side channel, single point] |  |
| COc1ccc(OCC(=O)NC(=S)Nc2ccc(S(=O)(=O)Nc3cc(OC)nc(OC)n3)cc2)cc1 | inconclusive: 79.4 µM [inhibitor, single point] |  |
| O=C(CCCN1C(=O)/C(=C/c2ccc(F)cc2)SC1=S)NCCCn1ccnc1 | inconclusive: 20 µM [quencher, side channel, partial curve] |  |
| COc1ccc(CC(=O)NC(C)c2nnc(SCC(=O)c3ccc(OC)cc3)n2C)cc1 (stereo not drawn) | inconclusive: 0.794 µM [fluorescent, side channel, single point] |  |
| C=CCNC(=S)NN=C1CCC(c2ccccc2)CC1 (stereo not drawn) | inconclusive: 28.2 µM [quencher, side channel, partial curve] |  |
| COC(=O)c1ccc(N2CCN(S(=O)(=O)c3c(C)cc(C)cc3C)CC2)c([N+](=O)[O-])c1 | inconclusive: 0.501 µM [quencher, side channel, full curve, poor fit] |  |
| COc1ccccc1C1SCCN1C(=O)c1ccc([N+](=O)[O-])cc1 (stereo not drawn) | inconclusive: 1.58 µM [quencher, side channel, full curve, poor fit] |  |
| Fc1ccc(-c2nnc3ccc(N4CCc5ccccc5C4)nn23)cc1 | inactive |  |
| O=C(CCCc1ccccc1)Nc1cccc([N+](=O)[O-])c1 | inconclusive: 15.8 µM [quencher, side channel, partial curve] |  |
| COC(=O)C(N)Cc1ccc(O)c(O)c1 (stereo not drawn) | inactive |  |
| CCCCNC(=O)c1ccc(N2CCC3(CC2)OCCO3)c([N+](=O)[O-])c1 | inconclusive: 2.51 µM [activator, partial curve] |  |
| CC[C@@H](C(=O)[C@@H](C)[C@@H](O)[C@H](C)CCc1ccc(C)c(O)c1C(=O)O)[C@H]1O[C@](CC)([C@H]2CC[C@](O)(CC)[C@H](C)O2)C[C@@H]1C | inactive |  |
